Reference: publication PMC9911399, “Two distinct binding modes provide the RNA-binding protein RbFox with extraordinary sequence specificity”
Substitutions are numbered along the chain they refer to; changes in the protein carry UniProt numbers. This is one part of the list.

T1: RBFOX1 RRM (Homo sapiens, UniProt Q9NWB1 109-208)
T1 sequence: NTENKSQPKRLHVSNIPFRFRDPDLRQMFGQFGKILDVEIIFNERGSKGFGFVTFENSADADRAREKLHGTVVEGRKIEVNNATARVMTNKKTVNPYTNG

B1: ACGUACA (DNA:RNA)
RNA: GGGAGACCGGAAUUCAGAUUGUCCACGUACAUUAAAUCCCGUCGUAGCCACCA
DNA 1: CAATCTGAATTCCGGTCTCCC
DNA 2: TGGTGGCTACGACGGGATT
B2: ACGGAUG (DNA:RNA)
RNA: B1 RNA with U28G, C30U, A31G
DNA 1: CAATCTGAATTCCGGTCTCCC
DNA 2: TGGTGGCTACGACGGGATT
B3: UUUGAAA (DNA:RNA)
RNA: B1 RNA with A25U, C26U, G27U, U28G, C30A
DNA 1: CAATCTGAATTCCGGTCTCCC
DNA 2: TGGTGGCTACGACGGGATT
B4: GAGGAGU (DNA:RNA)
RNA: B1 RNA with A25G, C26A, U28G, C30G, A31U
DNA 1: CAATCTGAATTCCGGTCTCCC
DNA 2: TGGTGGCTACGACGGGATT
B5: UUGAUCC (DNA:RNA)
RNA: B1 RNA with A25U, C26U, U28A, A29U, A31C
DNA 1: CAATCTGAATTCCGGTCTCCC
DNA 2: TGGTGGCTACGACGGGATT
B6: CUAAUCC (DNA:RNA)
RNA: B1 RNA with A25C, C26U, G27A, U28A, A29U, A31C
DNA 1: CAATCTGAATTCCGGTCTCCC
DNA 2: TGGTGGCTACGACGGGATT
B7: CUUAGGC (DNA:RNA)
RNA: GGGAGACCGGAAUUCAGAUUGUCCCUUAGGCUUAAAUCCCGUCGUAGCCACCA
DNA 1: CAATCTGAATTCCGGTCTCCC
DNA 2: TGGTGGCTACGACGGGATT
B8: AGCGGCA (DNA:RNA)
RNA: B1 RNA with C26G, G27C, U28G, A29G
DNA 1: CAATCTGAATTCCGGTCTCCC
DNA 2: TGGTGGCTACGACGGGATT
B9: ACAAGGC (DNA:RNA)
RNA: B7 RNA with C25A, U26C, U27A
DNA 1: CAATCTGAATTCCGGTCTCCC
DNA 2: TGGTGGCTACGACGGGATT
B10: CAUUAAU (DNA:RNA)
RNA: B1 RNA with A25C, C26A, G27U, C30A, A31U
DNA 1: CAATCTGAATTCCGGTCTCCC
DNA 2: TGGTGGCTACGACGGGATT
B11: CUAGCGC (DNA:RNA)
RNA: B7 RNA with U27A, A28G, G29C
DNA 1: CAATCTGAATTCCGGTCTCCC
DNA 2: TGGTGGCTACGACGGGATT
B12: CGCAUAU (DNA:RNA)
RNA: B7 RNA with U26G, U27C, G29U, G30A, C31U
DNA 1: CAATCTGAATTCCGGTCTCCC
DNA 2: TGGTGGCTACGACGGGATT
B13: GAUCGUA (DNA:RNA)
RNA: B7 RNA with C25G, U26A, A28C, G30U, C31A
DNA 1: CAATCTGAATTCCGGTCTCCC
DNA 2: TGGTGGCTACGACGGGATT
B14: GAAUCAA (DNA:RNA)
RNA: B1 RNA with A25G, C26A, G27A, A29C, C30A
DNA 1: CAATCTGAATTCCGGTCTCCC
DNA 2: TGGTGGCTACGACGGGATT
B15: CCUUUAG (DNA:RNA)
RNA: B1 RNA with A25C, G27U, A29U, C30A, A31G
DNA 1: CAATCTGAATTCCGGTCTCCC
DNA 2: TGGTGGCTACGACGGGATT
B16: UGUUCAC (DNA:RNA)
RNA: B7 RNA with C25U, U26G, A28U, G29C, G30A
DNA 1: CAATCTGAATTCCGGTCTCCC
DNA 2: TGGTGGCTACGACGGGATT
B17: ACCGACC (DNA:RNA)
RNA: B1 RNA with G27C, U28G, A31C
DNA 1: CAATCTGAATTCCGGTCTCCC
DNA 2: TGGTGGCTACGACGGGATT
B18: UACACUG (DNA:RNA)
RNA: B7 RNA with C25U, U26A, U27C, G29C, G30U, C31G
DNA 1: CAATCTGAATTCCGGTCTCCC
DNA 2: TGGTGGCTACGACGGGATT
B19: UAAUGCC (DNA:RNA)
RNA: B1 RNA with A25U, C26A, G27A, A29G, A31C
DNA 1: CAATCTGAATTCCGGTCTCCC
DNA 2: TGGTGGCTACGACGGGATT
B20: CGCUGCA (DNA:RNA)
RNA: B1 RNA with A25C, C26G, G27C, A29G
DNA 1: CAATCTGAATTCCGGTCTCCC
DNA 2: TGGTGGCTACGACGGGATT
B21: GUGCGAA (DNA:RNA)
RNA: B1 RNA with A25G, C26U, U28C, A29G, C30A
DNA 1: CAATCTGAATTCCGGTCTCCC
DNA 2: TGGTGGCTACGACGGGATT
B22: GAUGGUG (DNA:RNA)
RNA: B7 RNA with C25G, U26A, A28G, G30U, C31G
DNA 1: CAATCTGAATTCCGGTCTCCC
DNA 2: TGGTGGCTACGACGGGATT
B23: GACGUGG (DNA:RNA)
RNA: B7 RNA with C25G, U26A, U27C, A28G, G29U, C31G
DNA 1: CAATCTGAATTCCGGTCTCCC
DNA 2: TGGTGGCTACGACGGGATT
B24: GGUUCCG (DNA:RNA)
RNA: B1 RNA with A25G, C26G, G27U, A29C, A31G
DNA 1: CAATCTGAATTCCGGTCTCCC
DNA 2: TGGTGGCTACGACGGGATT
B25: AUGUCCA (DNA:RNA)
RNA: B1 RNA with C26U, A29C
DNA 1: CAATCTGAATTCCGGTCTCCC
DNA 2: TGGTGGCTACGACGGGATT
B26: AAUUACA (DNA:RNA)
RNA: B1 RNA with C26A, G27U
DNA 1: CAATCTGAATTCCGGTCTCCC
DNA 2: TGGTGGCTACGACGGGATT
B27: UCUUGAU (DNA:RNA)
RNA: B1 RNA with A25U, G27U, A29G, C30A, A31U
DNA 1: CAATCTGAATTCCGGTCTCCC
DNA 2: TGGTGGCTACGACGGGATT
B28: CGGCGAG (DNA:RNA)
RNA: B7 RNA with U26G, U27G, A28C, G30A, C31G
DNA 1: CAATCTGAATTCCGGTCTCCC
DNA 2: TGGTGGCTACGACGGGATT
B29: ACAACGC (DNA:RNA)
RNA: B7 RNA with C25A, U26C, U27A, G29C
DNA 1: CAATCTGAATTCCGGTCTCCC
DNA 2: TGGTGGCTACGACGGGATT
B30: CAACCAC (DNA:RNA)
RNA: B7 RNA with U26A, U27A, A28C, G29C, G30A
DNA 1: CAATCTGAATTCCGGTCTCCC
DNA 2: TGGTGGCTACGACGGGATT
B31: GCCAAGA (DNA:RNA)
RNA: B1 RNA with A25G, G27C, U28A, C30G
DNA 1: CAATCTGAATTCCGGTCTCCC
DNA 2: TGGTGGCTACGACGGGATT

Molecular target: T1, RBFOX1 RRM
Experiment: EMSA; HiTS-Eq, 1 nM pool, 10 min; buffer printed only for the single-RNA assays: 10 mM Tris pH 7.5, 150 mM NaCl, 3.4 mM EDTA, 0.001% NP-40, 30 C
Conditions: tags: His6 N-terminal (pET28a); label: 5' 32P
In short: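 A pool of RNA with 7 randomized nucleotides, 5′-radiolabelled and with DNA-annealed flanks, was equilibrated at 1 nM for 10 min in 50 µL with purified RbFox RRM, wild type or mutant, across increasing protein concentrations. Free RNA was separated by 8% native PAGE, excised, reverse-transcribed, barcoded by PCR and sequenced. Relative association constants were obtained from read-count changes of each RNA species versus the control reaction and normalised to the cognate motif.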

B1 was tested. Which binding signal did it give?
Its binding signal is 0.00345 KA relative to UGCAUGU.

With B2 as the binder, how does the binding signal read?
The binding signal was 0.011 KA relative to UGCAUGU.

With B3 as the binder, how does the binding signal read?
Its binding signal is 0.0166 KA relative to UGCAUGU.

How did the binding signal turn out when B4 was run?
Its binding signal is 0.0129 KA relative to UGCAUGU.

Which binding signal does the source give for B5 here?
Its binding signal is 0.0141 KA relative to UGCAUGU.

B6 was tested. Which binding signal did it give?
The binding signal was 0.0018 KA relative to UGCAUGU.

How did the binding signal turn out when B7 was run?
Its binding signal is 0.0123 KA relative to UGCAUGU.

Which binding signal does the source give for B8 here?
The binding signal was 0.0196 KA relative to UGCAUGU.

For B9, which binding signal is on record?
The binding signal was 0.00386 KA relative to UGCAUGU.

Which binding signal does the source give for B10 here?
The binding signal was 0.00156 KA relative to UGCAUGU.

B11 was tested. Which binding signal did it give?
Its binding signal is 0.011 KA relative to UGCAUGU.

Which binding signal does the source give for B12 here?
Its binding signal is 0.00741 KA relative to UGCAUGU.

With B13 as the binder, how does the binding signal read?
Its binding signal is 0.0149 KA relative to UGCAUGU.

Which binding signal does the source give for B14 here?
Its binding signal is 0.00683 KA relative to UGCAUGU.

With B15 as the binder, how does the binding signal read?
Its binding signal is 0.0111 KA relative to UGCAUGU.

With B16 as the binder, how does the binding signal read?
The binding signal was 0.0103 KA relative to UGCAUGU.

With B17 as the binder, how does the binding signal read?
The binding signal was 0.00253 KA relative to UGCAUGU.

How did the binding signal turn out when B18 was run?
Its binding signal is 0.0103 KA relative to UGCAUGU.

With B19 as the binder, how does the binding signal read?
Its binding signal is 0.0126 KA relative to UGCAUGU.

B20 was tested. Which binding signal did it give?
Its binding signal is 0.0198 KA relative to UGCAUGU.

For B21, which binding signal is on record?
Its binding signal is 0.0116 KA relative to UGCAUGU.

B22 was tested. Which binding signal did it give?
Its binding signal is 0.0236 KA relative to UGCAUGU.

How did the binding signal turn out when B23 was run?
The binding signal was 0.0166 KA relative to UGCAUGU.

Which binding signal does the source give for B24 here?
The binding signal was 0.0168 KA relative to UGCAUGU.

With B25 as the binder, how does the binding signal read?
The binding signal was 0.00494 KA relative to UGCAUGU.

Which binding signal does the source give for B26 here?
Its binding signal is 0.00153 KA relative to UGCAUGU.

B27 was tested. Which binding signal did it give?
Its binding signal is 0.0155 KA relative to UGCAUGU.

For B28, which binding signal is on record?
Its binding signal is 0.0186 KA relative to UGCAUGU.

How did the binding signal turn out when B29 was run?
The binding signal was 0.00245 KA relative to UGCAUGU.

B30 was tested. Which binding signal did it give?
The binding signal was 0.000237 KA relative to UGCAUGU.

B31 was tested. Which binding signal did it give?
The binding signal was 0.0151 KA relative to UGCAUGU.
